{"source": "the supplement of paper PMC8728848", "binders": {"B1": {"name": "Pwp3 (Candida glabrata) (protein)", "chain": "MGSSHHHHHHSSGLVPRGSHMASKNPVDFTTVCQFPDNFSKKPGFLATTARLGLWITGNSYKELLNYPGTFTLTTQQASTTTPNIQLRGTDLFTTIYGLTVYPLYLLVELQGYFVPTQSGMYTFSLTGSDDAAIIFIGNPSTFPCDAFKTWPQATANDITVTDSINPSRTLYMVKGVAYPLRIAYYNGLGNGVLNAAFTDPSGTKRTDWNGYIWQYDQCSTCTYK"}}, "test_in_all_cases": "glycan array binding signal (z-score within array); higher = stronger binding", "conditions_in_all_cases": "glycan notation: IUPAC condensed, linker removed", "key": {"[1]": {"target": "Gal(b1-4)GlcNAc(b1-3)Gal(b1-4)GlcNAc(b1-3)Gal(b1-4)GlcNAc(b1-3)Gal(b1-4)GlcNAc(b1-2)Man(a1-3)[Gal(b1-4)GlcNAc(b1-3)Gal(b1-4)GlcNAc(b1-3)Gal(b1-4)GlcNAc(b1-3)Gal(b1-4)GlcNAc(b1-2)Man(a1-6)]Man(b1-4)GlcNAc(b1-4)[Fuc(a1-6)]GlcNAc", "in_short": "(§1)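 The binding signal is a Z-score computed within each array and averaged over linkers. Arrays of the same protein sequence at different concentrations or buffers were also averaged together. Data originate from 3228 arrays in the Consortium for Functional Glycomics database, kept only where the protein sequence was available.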"}, "[2]": {"target": "Gal(b1-4)GlcNAc(b1-3)Gal(b1-4)GlcNAc(b1-3)Gal(b1-4)GlcNAc(b1-3)Gal(b1-4)GlcNAc(b1-2)[Gal(b1-4)GlcNAc(b1-3)Gal(b1-4)GlcNAc(b1-3)Gal(b1-4)GlcNAc(b1-3)Gal(b1-4)GlcNAc(b1-6)]Man(a1-6)[Gal(b1-4)GlcNAc(b1-3)Gal(b1-4)GlcNAc(b1-3)Gal(b1-4)GlcNAc(b1-3)Gal(b1-4)GlcNAc(b1-2)Man(a1-3)]Man(b1-4)GlcNAc(b1-4)[Fuc(a1-6)]GlcNAc", "in_short": "as §1"}, "[3]": {"target": "Gal(b1-4)GlcNAc(b1-3)Gal(b1-4)GlcNAc(b1-3)Gal(b1-4)GlcNAc(b1-3)Gal(b1-4)GlcNAc(b1-3)Gal(b1-4)GlcNAc(b1-2)Man(a1-3)[Gal(b1-4)GlcNAc(b1-3)Gal(b1-4)GlcNAc(b1-3)Gal(b1-4)GlcNAc(b1-3)Gal(b1-4)GlcNAc(b1-3)Gal(b1-4)GlcNAc(b1-2)Man(a1-6)]Man(b1-4)GlcNAc(b1-4)GlcNAc", "in_short": "as §1"}, "[4]": {"target": "Gal(b1-4)GlcNAc(b1-3)Gal(b1-4)GlcNAc(b1-3)Gal(b1-4)GlcNAc(b1-3)Gal(b1-4)GlcNAc(b1-3)Gal(b1-4)GlcNAc(b1-2)Man(a1-3)[Gal(b1-4)GlcNAc(b1-3)Gal(b1-4)GlcNAc(b1-3)Gal(b1-4)GlcNAc(b1-3)Gal(b1-4)GlcNAc(b1-3)Gal(b1-4)GlcNAc(b1-2)Man(a1-6)]Man(b1-4)GlcNAc(b1-4)[Fuc(a1-6)]GlcNAc", "in_short": "as §1"}, "[5]": {"target": "Gal(b1-4)GlcNAc(b1-3)Gal(b1-4)GlcNAc(b1-3)Gal(b1-4)GlcNAc(b1-3)Gal(b1-4)GlcNAc(b1-3)Gal(b1-4)GlcNAc(b1-2)[Gal(b1-4)GlcNAc(b1-3)Gal(b1-4)GlcNAc(b1-3)Gal(b1-4)GlcNAc(b1-3)Gal(b1-4)GlcNAc(b1-3)Gal(b1-4)GlcNAc(b1-6)]Man(a1-6)[Gal(b1-4)GlcNAc(b1-3)Gal(b1-4)GlcNAc(b1-3)Gal(b1-4)GlcNAc(b1-3)Gal(b1-4)GlcNAc(b1-3)Gal(b1-4)GlcNAc(b1-2)Man(a1-3)]Man(b1-4)GlcNAc(b1-4)[Fuc(a1-6)]GlcNAc", "in_short": "as §1"}, "[6]": {"target": "Gal(b1-4)GlcNAc(b1-3)Gal(b1-4)GlcNAc(b1-3)Gal(b1-4)GlcNAc(b1-3)Gal(b1-4)GlcNAc(b1-3)Gal(b1-4)GlcNAc(b1-3)Gal(b1-4)GlcNAc(b1-2)Man(a1-3)[Gal(b1-4)GlcNAc(b1-3)Gal(b1-4)GlcNAc(b1-3)Gal(b1-4)GlcNAc(b1-3)Gal(b1-4)GlcNAc(b1-3)Gal(b1-4)GlcNAc(b1-3)Gal(b1-4)GlcNAc(b1-2)Man(a1-6)]Man(b1-4)GlcNAc(b1-4)GlcNAc", "in_short": "as §1"}, "[7]": {"target": "Gal(b1-4)GlcNAc(b1-3)Gal(b1-4)GlcNAc(b1-3)GalNAc", "in_short": "as §1"}, "[8]": {"target": "Gal(b1-4)GlcNAc(b1-3)Gal(b1-4)GlcNAc(b1-3)[Gal(b1-4)GlcNAc(b1-3)Gal(b1-4)GlcNAc(b1-6)]GalNAc", "in_short": "as §1"}, "[9]": {"target": "Gal(b1-4)GlcNAc(b1-3)Gal(b1-4)GlcNAc(b1-6)[Gal(b1-3)]GalNAc", "in_short": "as §1"}, "[10]": {"target": "Gal(b1-4)GlcNAc(b1-3)Gal(b1-4)[Fuc(a1-3)]GlcNAc(b1-3)Gal(b1-4)[Fuc(a1-3)]GlcNAc", "in_short": "as §1"}, "[11]": {"target": "Gal(b1-4)GlcNAc(b1-3)GalNAc", "in_short": "as §1"}, "[12]": {"target": "Gal(b1-4)GlcNAc(b1-3)[Fuc(a1-3)GlcNAc(b1-6)]Gal(b1-4)Glc", "in_short": "as §1"}, "[13]": {"target": "Gal(b1-4)GlcNAc(b1-3)[Gal(b1-4)GlcNAc(b1-6)]Gal(b1-4)GlcNAc", "in_short": "as §1"}, "[14]": {"target": "Gal(b1-4)GlcNAc(b1-3)[GlcNAc(b1-6)]Gal(b1-4)GlcNAc", "in_short": "as §1"}, "[15]": {"target": "Gal(b1-4)GlcNAc(b1-6)Gal(b1-4)GlcNAc", "in_short": "as §1"}, "[16]": {"target": "Gal(b1-4)GlcNAc(b1-6)GalNAc", "in_short": "as §1"}, "[17]": {"target": "Gal(b1-4)GlcNAc(b1-6)[Gal(b1-3)]GalNAc", "in_short": "as §1"}, "[18]": {"target": "Gal(b1-4)GlcNAc(b1-6)[Gal(b1-4)GlcNAc(b1-3)]GalNAc", "in_short": "as §1"}, "[19]": {"target": "Gal(b1-4)GlcNAc6P", "in_short": "as §1"}, "[20]": {"target": "Gal(b1-6)Gal", "in_short": "as §1"}, "[21]": {"target": "Gal3S(b1-3)GalNAc", "in_short": "as §1"}, "[22]": {"target": "Gal3S(b1-3)GlcNAc", "in_short": "as §1"}, "[23]": {"target": "Gal3S(b1-3)[Fuc(a1-4)]GlcNAc", "in_short": "as §1"}}, "note": "The other results are listed elsewhere or left out.", "data": [{"binder": "B1", "values": [{"measurement": "glycan array binding signal (z-score)", "setting": "[1]", "value": 1.11}, {"measurement": "glycan array binding signal (z-score)", "setting": "[2]", "value": -0.237}, {"measurement": "glycan array binding signal (z-score)", "setting": "[3]", "value": 3.73}, {"measurement": "glycan array binding signal (z-score)", "setting": "[4]", "value": 2.41}, {"measurement": "glycan array binding signal (z-score)", "setting": "[5]", "value": -0.344}, {"measurement": "glycan array binding signal (z-score)", "setting": "[6]", "value": 2.87}, {"measurement": "glycan array binding signal (z-score)", "setting": "[7]", "value": -0.392}, {"measurement": "glycan array binding signal (z-score)", "setting": "[8]", "value": 0.036}, {"measurement": "glycan array binding signal (z-score)", "setting": "[9]", "value": -0.605}, {"measurement": "glycan array binding signal (z-score)", "setting": "[10]", "value": -0.328}, {"measurement": "glycan array binding signal (z-score)", "setting": "[11]", "value": -0.473}, {"measurement": "glycan array binding signal (z-score)", "setting": "[12]", "value": -0.592}, {"measurement": "glycan array binding signal (z-score)", "setting": "[13]", "value": 2.15}, {"measurement": "glycan array binding signal (z-score)", "setting": "[14]", "value": -0.33}, {"measurement": "glycan array binding signal (z-score)", "setting": "[15]", "value": 2.3}, {"measurement": "glycan array binding signal (z-score)", "setting": "[16]", "value": -0.482}, {"measurement": "glycan array binding signal (z-score)", "setting": "[17]", "value": 1.21}, {"measurement": "glycan array binding signal (z-score)", "setting": "[18]", "value": -0.171}, {"measurement": "glycan array binding signal (z-score)", "setting": "[19]", "value": 0.154}, {"measurement": "glycan array binding signal (z-score)", "setting": "[20]", "value": -0.446}, {"measurement": "glycan array binding signal (z-score)", "setting": "[21]", "value": -0.275}, {"measurement": "glycan array binding signal (z-score)", "setting": "[22]", "value": -0.36}, {"measurement": "glycan array binding signal (z-score)", "setting": "[23]", "value": -0.757}]}]}
